Source: PubChem BioAssay AID1030 (National Center for Advancing Translational Sciences (NCATS), 2008)
Out of some 220,000 compounds screened, about 16,000 (7.3%) were called active. The inconclusive results got no clear call from the source; some entries with a clear call stand among them for comparison. Calls follow the shape of the dose curve; as a rule, active = well fitted inhibition curve with a large enough effect (not every such curve was filed as active); inconclusive = small, poorly fitted or top-dose-only effect, or another doubt; inactive = no such curve, though single readings can be large or run the other way. Potencies of inconclusive entries are left out as doubtful fits.

target: Aldehyde dehydrogenase 1A1 (Homo sapiens) (UniProt P00352); assay: qHTS Assay for Inhibitors of Aldehyde Dehydrogenase 1 (ALDH1A1); details: Purified ALDH1A1, NADH fluorescence, propionaldehyde substrate; series mostly up to 75.3 µM
UniProt P00352, sequence (P00352 whole entry, looked up): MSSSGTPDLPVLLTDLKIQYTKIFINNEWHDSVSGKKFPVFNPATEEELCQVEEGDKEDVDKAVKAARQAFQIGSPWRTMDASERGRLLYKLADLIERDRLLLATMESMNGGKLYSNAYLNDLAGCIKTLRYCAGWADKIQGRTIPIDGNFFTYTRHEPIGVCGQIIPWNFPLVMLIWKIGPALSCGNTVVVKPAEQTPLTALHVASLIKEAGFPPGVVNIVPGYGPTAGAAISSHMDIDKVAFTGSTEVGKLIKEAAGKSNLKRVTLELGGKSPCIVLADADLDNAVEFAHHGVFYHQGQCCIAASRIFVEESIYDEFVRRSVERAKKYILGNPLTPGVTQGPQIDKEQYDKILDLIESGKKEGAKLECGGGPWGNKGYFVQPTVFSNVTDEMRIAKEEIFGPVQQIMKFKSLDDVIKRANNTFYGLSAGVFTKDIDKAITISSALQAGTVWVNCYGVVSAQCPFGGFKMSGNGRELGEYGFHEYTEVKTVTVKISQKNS
Potency is read from the fitted curve at half-maximal effect; tags tell the direction and shape of the fitted curve.

Compound	Potency
COc1ccc(OC)c(-n2c(-c3cccc(C)c3)n[nH]c2=S)c1	inconclusive [inhibitor, single point]
COc1ccc(Br)cc1CSC(=N)N	inactive
CCOC(=O)N1CCN(C(=S)NC(=O)c2ccnn2C)CC1	inactive
CCCCCCCCNC(=O)c1cccnc1SCC(=O)Nc1ccccc1OC	inactive
CCOC(=O)c1c(C(C)(C)C)oc2ccc(O)cc12	inconclusive [inhibitor, full curve]
O=C(Nc1ccon1)c1cc2c(s1)CCCCCC2	inconclusive [inhibitor, single point]
Fc1ccc(NC(=S)Nc2cccc(Cl)c2)cc1	inconclusive [inhibitor, single point]
CCOc1ccc(CCNC(=O)C2CCCN(S(=O)(=O)c3c(C)n[nH]c3C)C2)cc1OCC (configuration not stated)	inconclusive [inhibitor, partial curve]
Cc1cc(=O)oc2cc(O)cc(O)c12	inconclusive [inhibitor, partial curve]
CC1(C)C2CC=C(/C=N/NC(=O)c3ccccc3O)C1C2 (configuration not stated)	inconclusive [inhibitor, single point]
O=C(NCc1ccncc1)c1ccc(N2CCCC2)c([N+](=O)[O-])c1	inconclusive [inhibitor, partial curve, poor fit]
Cc1ccc(C(C(=O)Nc2ccc3c(c2)OCO3)N(C)C(=O)/C=C\c2ccc3c(c2)OCO3)cc1 (configuration not stated)	inconclusive [inhibitor, single point]
Cc1cccc2nc(C(F)(F)F)nc(=O)n12	inconclusive [inhibitor, partial curve]
COc1ccccc1NC(=O)CN(Cc1ccco1)C(=O)c1cccs1	inconclusive [inhibitor, single point]
CN(c1ccc(C(=O)NCC2CCCO2)cc1)S(=O)(=O)c1ccccc1 (configuration not stated)	inactive
CC(=O)Nc1nonc1-c1nc2ccccc2n1CCC(C)C	inconclusive [inhibitor, partial curve]
CCOC(=O)C1=C(C)N(C)C(=S)N(C)C1c1ccc(OC)cc1 (configuration not stated)	inactive
O=C(OCC(=O)N1CCN(C(=O)c2ccco2)CC1)c1cc(-c2ccco2)nc2ccccc12	inconclusive [inhibitor, partial curve]
CCN(Cc1ccccc1)S(=O)(=O)c1cc(C(=O)NCCCN(C)C)ccc1OC	inactive
O=C(COC(=O)c1ccccc1NC(=O)c1ccco1)NC1CC1	inconclusive [inhibitor, single point]
O=S(=O)(c1cccc(-c2cn3cc(Cl)ccc3n2)c1)N1CCOCC1	inconclusive [inhibitor, single point]
COC(=O)c1cc(C(=O)NCc2ccccc2)c(=O)[nH]c1C	inconclusive [inhibitor, partial curve]
COn1cnnc1-c1ccccc1	inconclusive [inhibitor, single point]
O=C(NCC1CCCO1)c1csc(Nc2cccc3ccccc23)n1 (configuration not stated)	inactive

Compound	Potency
N#Cc1nc(Cc2cccc3ccccc23)oc1NCc1ccco1	inconclusive [inhibitor, single point]
CC1=NN=C(c2ccccc2)C(c2c[nH]c3ccccc23)N1O (configuration not stated)	inactive
CCN(CC)C(=O)C(=O)N/N=C/c1ccc(C(=O)OC)cc1	inactive
COCC(=O)Nc1cc(=O)n(C)c(=O)n1C	inactive
COc1ccc(C2(O)CC3CCC(C2)N3c2cc(C)nc(-c3ccccc3)n2)cc1 (configuration not stated)	inconclusive [inhibitor, single point]
CC1=C[C@H]2Cc3cc(C)cc(C)c3S(=O)(=O)[C@@H]2C=C1	inconclusive [inhibitor, single point]
NC(=O)c1nnn(-c2ccc([N+](=O)[O-])cc2)c1-c1ccccc1	inconclusive [inhibitor, partial curve]
COc1ccc(CN(C(=O)Cc2c[nH]c3ccccc23)C(C(=O)NC2CCCCC2)c2ccc(C)o2)cc1 (configuration not stated)	active: 6.31 µM
S=c1[nH]nc(-c2cc(-c3ccsc3)n[nH]2)n1-c1ccccc1	inconclusive [inhibitor, single point]
O=C(CN1C(=O)C2CC=CCC2C1=O)N1CCN(c2ccc([N+](=O)[O-])cc2)CC1 (configuration not stated)	active: 25.1 µM
COCCNC(=O)/C(C#N)=C/c1ccc(OCC(=O)NC2CCCCC2)cc1	inactive
CC(=O)c1cccc(NC(=O)CC2Oc3ccc(C)cc3NC2=O)c1 (configuration not stated)	active: 3.16 µM
O=C(c1ccc(COc2c(F)c(F)c(F)c(F)c2F)o1)N1CCOCC1	inactive
N#Cc1nc(-c2ccco2)oc1N1CCN(c2cccc(Cl)c2)CC1	inconclusive [inhibitor, single point]
CCOC(=O)CNC(=O)c1cn(CC(C)C)c(=O)c2cc(OC)c(OC)cc12	inconclusive [inhibitor, partial curve]
COC(=O)[C@@]1(Cc2ccc(F)cc2)[C@H]2c3cc(C(=O)N4CCCC4)n(CCc4ccccn4)c3C[C@H]2CN1C(=O)c1ccccc1	inactive
O=C(COC(=O)c1ncc(Cl)c(Cl)c1Cl)c1ccc(Cl)s1	inconclusive [inhibitor, partial curve]
Cn1nnnc1Sc1c(Cl)cccc1[N+](=O)[O-]	inconclusive [inhibitor, single point]
CC(=O)NC(=S)Nc1ccc([N+](=O)[O-])cc1C	inactive
Cc1cccc(CNc2nc(-c3ccoc3)nc3ccccc23)c1	inactive
Fc1ccccc1CNc1cc(Cl)cc(Cl)c1	inconclusive [inhibitor, partial curve]
CC(C)(C)OC(=O)NCCCC1=CC2=CC(=O)C(C)(OC(=O)C3CCCC3)C(=O)C2=CO1 (configuration not stated)	inactive
CCCCn1c(NC(C)=O)c(C#N)c2nc3ccccc3nc21	inconclusive [inhibitor, partial curve]
